# From the supplement of paper PMC12217912
# The list shows a part of the results. The full chains were built here from the parent and the listed change. Values near 0.05 are background.
# B1: TEV protease; numbered along this chain (parent)
# chain: MGESLFKGPRDYNPISSSICHLTNESDGHTTSLYGIGFGPFIITNKHLFRRNNGTLVVQSLHGVFKVKDTTTLQQHLVDGRDMIIIRMPKDFPPFPQKLKFREPQREERICLVTTNFQTKSMSSMVSDTSCTFPSGDGIFWKHWIQTKDGQCGSPLVSTRDGFIVGIHSASNFTNTNNYFTSVPKNFMELLTNQEAQQWVSGWRLNADSVLWGGHKVFMVKPEEPFQPVKEATQL
# Variants of: B1
# Assay: raw area under fraction-flipped curve 0-4 h after induction (AUC4h, not background-subtracted), DNA-recorder readout of cleavage of the substrate (dimensionless); higher = more cleavage of the substrate by the protease variant
# Conditions: temperature: 34 °C; time window: 0-4 h after rhamnose induction
# Description: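 In vivo DNA recorder in E. coli TOP10(DE3) ΔrhaA at 34 °C. Each TEVp single-site mutant (parent TEVp 0) is paired with a single-site variant of the 7-mer TEVs (canonical ENLYFQ|S). The substrate sits between flexible linkers in a Bxb1-sfGFP-TEVs-SsrA fusion, so cleavage stabilises Bxb1 and speeds flipping of a recombination array, read by NGS. The value is the raw area under the fraction-flipped curve over 0-4 h after rhamnose induction (AUC4h), with ≥20 reads per time point. It is not background-subtracted; inactive controls average about 0.047.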
# 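Also: Bxb1 expression induced with 0.2% (w/v) L-rhamnose at OD600 near 0.5, cultures sampled hourly, flipped fraction per protease–substrate barcode pair counted by paired-end Illumina sequencing.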
Variant,area with substrate ENLYCQS,area with substrate ENLYDQS,area with substrate ENLYEQS,area with substrate ENLYGQS,area with substrate ENLYHQS,area with substrate ENLYIQS,area with substrate ENLYKQS,area with substrate ENLYMQS,area with substrate ENLYNQS,area with substrate ENLYPQS,area with substrate ENLYQQS,area with substrate ENLYRQS,area with substrate ENLYSQS,area with substrate ENLYTQS,area with substrate ENLYVQS,area with substrate ENLYWQS,area with substrate ENLYYQS,area with substrate ENLYLQS
MGESLFKGPRDYNPISSSICHLTNESDGHTTSLYGIGFGPFIITNKHLFRRNNGTLVVQSLHGVFKVKDTTTLQQHLVDGRDMIIIRMPKDFPPFPQKLKFREPQREERICLVTTNFQTKSMSSMVSDTSCTFPSGDGIFWKHWIQTKGGQCGSPLVSTRDGFIVGIHSASNFTNTNNYFTSVPKNFMELLTNQEAQQWVSGWRLNADSVLWGGHKVFMVKPEEPFQPVKEATQL [D149G],0.104,0.0617,0.0722,0.0571,0.0654,0.0807,0.0666,0.0825,0.0643,0.0708,0.0618,0.053,0.0667,0.066,0.087,0.0721,0.0481,
MGESLFKGPRDYNPISSSICHLTNESDGHTTSLYGIGFGPFIITNKHLFRRNNGTLVVQSLHGVFKVKDTTTLQQHLVDGRDMIIIRMPKDFPPFPQKLKFREPQREERICLVTTNFQTKSMSSMVSDTSCTFPSGDGIFWKHWIQTKDGQCGSPLVSTQDGFIVGIHSASNFTNTNNYFTSVPKNFMELLTNQEAQQWVSGWRLNADSVLWGGHKVFMVKPEEPFQPVKEATQL [R160Q],0.0863,0.0547,0.0622,0.0835,0.0619,,0.0458,0.0795,0.0941,0.0798,0.0612,0.0445,0.0652,0.0939,0.13,0.0796,,
MGESLFKGPRDYNPISSSICHLTNESDGHTTSLYGIGFGPFIITNKHLFRRNNGTLVVQSLHGVFKVKDTTTLQQHLVDGRDMIIIRMPKDFPPFPQKLKFREPQREERICLVTTNFQTKSMSSMVSDTSCTFPSGDGIFWKHWIQTKDGQCGSPLVSTRDGHIVGIHSASNFTNTNNYFTSVPKNFMELLTNQEAQQWVSGWRLNADSVLWGGHKVFMVKPEEPFQPVKEATQL [F163H],0.115,,,,0.0684,0.0832,0.0216,0.0418,0.0804,0.0641,,0.0523,,,,,,
MGESLFKGPRDYNPISSSICHLTNESDGHTTSLYGIGFGPFIITNKHLFRRNNGTLVVQSLHGVFKVKDTTTLQQHLVDGRDMIIIRMPKDFPPFPQKLKFREPQREERICLVTTNFQTKSMSSMVSDTSCTFPSGDGIFWKHWIQTKDGQCGSPLVSTRDGFIVGIVSASNFTNTNNYFTSVPKNFMELLTNQEAQQWVSGWRLNADSVLWGGHKVFMVKPEEPFQPVKEATQL [H168V],0.0627,0.0638,0.0029,0.0514,0.0556,0.134,0.0275,0.0642,0.0587,0.0626,0.0609,,0.0654,,,0.0584,0.0573,0.0727
MGESLFKGPRDYNPISSSICHLTNESDGHTTSLYGIGFGPFIITNKHLFRRNNGTLVVQSLHGVFKVKDTTTLQQHLVDGRDMIIIRMPKDFPPFPQKLKFREPQREERICLVTTNFQTKSMSSMVSDTSCTFPSGDGIFWKHWIQTKDGQCGSPLVSTRDGFIVGIHSASNFRNTNNYFTSVPKNFMELLTNQEAQQWVSGWRLNADSVLWGGHKVFMVKPEEPFQPVKEATQL [T174R],0.0923,0.058,0.0584,0.0684,0.0645,0.098,,0.0681,0.0639,0.0679,0.0486,,,0.0676,0.101,,,0.0645
MGESLFKGPRDYNPISSSICHLTNESDGHTTSLYGIGFGPFIITNKHLFRRNNGTLVVQSLHGVFKVKDTTTLQQHLVDGRDMIIIRMPKDFPPFPQKLKFREPQREERICLVTTNFQTKSMSSMVSDTSCTFPSGDGIFWKHWIQTKDGQCGSPLVSTRDGFIVGIHSASNFTNGNNYFTSVPKNFMELLTNQEAQQWVSGWRLNADSVLWGGHKVFMVKPEEPFQPVKEATQL [T176G],0.0674,0.0454,0.0627,0.0583,0.0643,0.0758,,0.0661,0.0645,,0.066,,,0.0683,0.0682,0.0635,0.0572,
MGESLFKGPRDYNPISSSICHLTNESDGHTTSLYGIGFGPFIITNKHLFRRNNGTLVVQSLHGVFKVKDTTTLQQHLVDGRDMIIIRMPKDFPPFPQKLKFREPQREERICLVTTNFQTKSMSSMVSDTSCTFPSGDGIFWKHWIQTKDGQCGSPLVSTRDGFIVGIHSASNFTNTNNYFTSKPKNFMELLTNQEAQQWVSGWRLNADSVLWGGHKVFMVKPEEPFQPVKEATQL [V183K],0.0474,0.05,0.0628,0.0331,0.0621,,0.0583,0.0576,,0.0468,,0.0597,0.0534,,,,,0.0458
MGESLFKGPRDYNPISSSICHLTNESDGHTTSLYGIGFGPFIITNKHLFRRNNGTLVVQSLHGVFKVKDTTTLQQHLVDGRDMIIIRMPKDFPPFPQKLKFREPQREERICLVTTNFQTKSMSSMVSDTSCTFPSGDGIFWKHWIQTKDGQCGSPLVSTRDGFIVGIHSASNFTNTNNYFTSVEKNFMELLTNQEAQQWVSGWRLNADSVLWGGHKVFMVKPEEPFQPVKEATQL [P184E],0.0649,0.0575,0.0552,0.054,0.0534,,0.0622,0.0659,0.0841,0.0532,0.0576,0.0502,0.0522,0.0583,,,0.0557,0.0602
MGESLFKGPRDYNPISSSICHLTNESDGHTTSLYGIGFGPFIITNKHLFRRNNGTLVVQSLHGVFKVKDTTTLQQHLVDGRDMIIIRMPKDFPPFPQKLKFREPQREERICLVTTNFQTKSMSSMVSDTSCTFPSGDGIFWKHWIQTKDGQCGSPLVSTRDGFIVGIHSASNFTNTNNYFTSVQKNFMELLTNQEAQQWVSGWRLNADSVLWGGHKVFMVKPEEPFQPVKEATQL [P184Q],0.104,0.0611,0.0681,,0.0564,0.0983,0.0629,0.0676,0.0618,0.0526,0.0639,0.0544,,,,0.0617,0.0633,
